Experimental data from PubChem BioAssay AID1645887 (National Center for Advancing Translational Sciences (NCATS), 2021).
Values joined by “and” are separate entries in the source; they are usually repeats but may differ in a detail not shown here. Equal entries are not always repeated. The campaign covered roughly 16,000 compounds. About 40 (0.2%) were called active. Roughly 1% stayed inconclusive and do not appear here. Calls follow the shape of the dose curve; as a rule, active = well fitted activation curve with a large enough effect; inconclusive = small, poorly fitted or top-dose-only effect, or another doubt; inactive = no such curve, though single readings can be large or run the other way. The list shows a part of the results.

Target: Rap guanine nucleotide exchange factor 4 (Homo sapiens) (UniProt Q8WZA2)
Chain of UniProt Q8WZA2 (Q8WZA2 whole entry, looked up): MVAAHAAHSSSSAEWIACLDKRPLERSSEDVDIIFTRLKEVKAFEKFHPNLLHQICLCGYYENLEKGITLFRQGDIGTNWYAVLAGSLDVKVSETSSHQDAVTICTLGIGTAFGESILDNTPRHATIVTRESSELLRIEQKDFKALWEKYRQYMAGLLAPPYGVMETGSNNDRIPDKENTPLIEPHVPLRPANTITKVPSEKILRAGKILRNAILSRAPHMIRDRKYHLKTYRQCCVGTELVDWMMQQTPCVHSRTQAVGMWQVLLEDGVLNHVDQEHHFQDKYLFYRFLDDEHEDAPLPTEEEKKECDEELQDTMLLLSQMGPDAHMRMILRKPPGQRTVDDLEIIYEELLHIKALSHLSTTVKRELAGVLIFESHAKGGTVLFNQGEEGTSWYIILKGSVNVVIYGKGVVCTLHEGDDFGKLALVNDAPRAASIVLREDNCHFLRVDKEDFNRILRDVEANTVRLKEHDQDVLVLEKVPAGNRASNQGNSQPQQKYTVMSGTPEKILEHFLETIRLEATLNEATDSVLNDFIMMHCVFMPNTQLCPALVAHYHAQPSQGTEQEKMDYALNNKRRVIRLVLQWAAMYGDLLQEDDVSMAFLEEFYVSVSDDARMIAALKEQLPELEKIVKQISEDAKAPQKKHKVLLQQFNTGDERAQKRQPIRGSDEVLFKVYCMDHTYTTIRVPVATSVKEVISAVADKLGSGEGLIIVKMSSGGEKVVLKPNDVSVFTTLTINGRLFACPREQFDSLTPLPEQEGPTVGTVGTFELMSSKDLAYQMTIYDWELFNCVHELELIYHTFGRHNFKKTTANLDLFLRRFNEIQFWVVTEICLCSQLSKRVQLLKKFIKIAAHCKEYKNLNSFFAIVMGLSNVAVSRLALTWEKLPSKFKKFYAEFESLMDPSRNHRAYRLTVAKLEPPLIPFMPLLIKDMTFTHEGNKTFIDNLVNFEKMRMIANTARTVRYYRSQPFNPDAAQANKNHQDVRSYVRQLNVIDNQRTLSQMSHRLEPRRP
Experiment: Validation qHTS for agonist of cAMP-regulated guanine nucleotide exchange factor 4 (EPAC2);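 also: exchange makes BODIPY-GDP fluorescence drop when released from Rap1B; series mostly up to about 150 µM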
Conditions: EPAC2 Rap1B BODIPY-GDP exchange, fluorescence; activation: stronger effect = higher value
Outline: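 Signal normalized against 6.5 mM cAMP as agonist control. Mix of EPAC2 (100 nM), RAP1B-BODIPY-GDP (250 nM) and GDP (50 uM) was read kinetically at 480/540 nm, every 5 min over 30 min, after 5 min room-temperature incubation with compound.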
% is scaled to controls: 0 for no effect and ±100 for the full control effect.

activation, inactive:
N=C(N)SCCN -9.86% and -8.89% and -23.9%
O=c1c(-c2cccs2)nc2cnc(N3CCOCC3)nc2n1CCc1ccccc1 9.41%
Nc1ncnc2c1c(I)cn2C1OC(CO)C(O)C1O (configuration not stated) -12.9% and 5.47% and 1.53%
Cc1cc(-c2cc(F)cc3c2OC(CNC(=O)[C@@H]2CCC(=O)N2)C3)ccc1F (some centres not stated) -4.66%
O=C(O)/C=C/C=C/c1ccccc1 -0.131%
O=C(c1ccc(N2CCC(NCCCn3ncc4ccccc43)CC2)cc1)N1CCOCC1 -9.12%
CCCCCCCCCC[n+]1ccc(/C=C/c2c(C)[nH]c3ccccc23)c2ccccc21 0.288%
NC(C(=O)NC1C(=O)N2C(C(=O)O)=C(Cl)CSC12)c1ccccc1 (configuration not stated) 17%
O=C(CO)[C@@H](O)[C@H](O)[C@@H](O)CO -10.5%
COC(=O)CC1C(=O)NCCN1C(=O)CN1Cc2ccccc2OC(c2ccccc2)C1 (configuration not stated) -8.45%
N[C@](CC1c2ccccc2Oc2ccccc21)(C(=O)O)[C@@H]1C[C@@H]1C(=O)O -21.4%
Cc1ccc(C(=O)C(C)CN2CCCCC2)cc1 (configuration not stated) -14% and -6.5%
CNCC[C@@H](Oc1ccccc1C)c1ccccc1 2.9% and -15.6%
c1ccc(CN2CCC3(CCCc4ccccc43)CC2)cc1 -43.4%
CN(C)c1ccc(N2[C@@H](CC(=O)O)c3cc(C(F)(F)F)ccc3S2(=O)=O)cc1 -26.7%
NS(=O)(=O)C#Cc1ccccc1 -23.4%
Cc1ccc(CNc2nc(C)c(-c3ccn(CCN4CCOCC4)n3)s2)o1 -14.8%
CC(=O)C1=C(O)C=C2Oc3c(C(C)=O)c(O)c(C)c(O)c3C2(C)C1=O (configuration not stated) -12%
O=C(CCCCC(=O)Nc1c(I)cc(I)c(C(=O)O)c1I)Nc1c(I)cc(I)c(C(=O)O)c1I 15.4% and -6.68%
CC(C)Cc1nc2cc(NS(=O)(=O)N(C)C)cc(C(=O)N3CCOCC3)c2n1C -17.8%
COC(=O)N1CCC[C@@]2(CCN(c3ccncc3)C2)C1 -10.5%
CN(C)c1ncc2ncc(=O)n(Cc3ccc(F)cc3)c2n1 -6.61%
Cc1ccc(C(=O)[C@@H]2[C@H]3C4COC(O4)C(=O)[C@@H]3[C@H]3C=Cc4ccccc4N32)cc1 (some centres not stated) 8.83%
COc1ccc(OC)c(C(=O)N2CCOc3ccc(C(C)(O)CN(C)C)cc3C2)c1 (configuration not stated) -24.2%
CCC1(C2CCN(Cc3ccc(OC)cc3)CC2)NC(=O)N(CC2COc3ccccc3O2)C1=O (configuration not stated) -13.5%
Cc1ccc2nc(N3CCCCCC3)c(CN(CC3CCCO3)C(=O)c3cncs3)cc2c1 (configuration not stated) 3.89%
COc1ccc(CNc2ccnc(-c3cccnc3)n2)c(OC)c1 0.781%
CNC(=O)[C@H]1O[C@H](n2cnc3c(NCc4cccc(I)c4)ncnc32)[C@@H](O)[C@@H]1O 5.04%
O=C(Nc1cccc(F)c1)N1CC2(CCN(S(=O)(=O)c3ccccc3)CC2)C1 -2.3%
CCC1C(=O)NCCN1Cc1ccc2c(c1)CN(Cc1cc(OC)c3c(c1)OCO3)CCO2 (configuration not stated) -0.295%
CCCCCCCCCCCCCCCC(=O)OCC(COC(=O)CCCCCCCCCCCCCCC)OC(=O)CCCCCCCCCCCCCCC -14.5%
C[C@@H](C(=O)O)c1ccc(-c2ccccc2)c(F)c1 -12.2%
CC1=C2C(=COC(C)C2C)C(=O)C(C(=O)O)=C1O (configuration not stated) -7.76%
CC(Cc1ccc(O)c(O)c1)C(C)Cc1ccc(O)c(O)c1 (configuration not stated) 9.28%
COc1cccc(-c2nccc(NCCc3c[nH]c4ccc(OC)cc34)n2)c1 9.54%
COC(=O)[C@@H]1[C@H]2SC(C)(C)[C@H](C(=O)OC)N2C(=O)N1Cc1cc2ccccc2n1S(=O)(=O)c1ccccc1 1.41%
COC(=O)[C@@H]1CCCN1Cc1ccc2c(c1)CN(Cc1nccs1)CCO2 -10.9%
O=C(O)Cc1cc(I)c(Oc2ccc(O)c(I)c2)c(I)c1 -18% and -15.4%
O=S1(=O)CCO[C@H]2CCCC[C@@H]2N1Cc1ccccc1Br -4.01%
COc1cc(/C=C/C(=O)c2c(O)cc(C)oc2=O)ccc1O -18.5%
C/C=C/c1ccc(O)c(OC)c1 -2.9%
Cc1ccc2cc(CNC(C)c3cccc4ccccc34)c(N3CCC(O)CC3)nc2c1 (configuration not stated) -0.607%
Cn1c(=O)c(-c2cc(F)cc(F)c2)nc2cnc(Nc3ccccc3)nc21 2.39%
COc1cc(C(C)=O)cc(OC)c1O -7.68%
COc1ncc2nc(-c3cc(F)cc(F)c3)c(=O)n(-c3ccccc3)c2n1 5.79%
CCN(CC)CCCN(c1ccccc1)C1Cc2ccccc2C1 -20.4% and -45.4%
CCNC(=O)[C@@H]1CCCN1C(=O)[C@H](CCCN=C(N)N)NC(=O)[C@H](CC(C)C)NC(=O)[C@@H](CC(C)C)NC(=O)[C@H](Cc1ccc(O)cc1)NC(=O)[C@H](CO)NC(=O)[C@H](Cc1c[nH]c2ccccc12)NC(=O)[C@H](Cc1cnc[nH]1)NC(=O)[C@@H]1CCC(=O)N1 0.972%
Nc1cccc2[nH]cnc12 -4.63%
CN(C)Cc1ccccc1-c1nc(N2CCOCC2)c2ccccc2n1 -8.14%
Cc1oc(=O)oc1CN1CCN(c2cc3c(cc2F)c(=O)c(C(=O)O)c2n3C(C)S2)CC1 (configuration not stated) -13.1%
CN1CCN(c2ncc3nc(-c4cccs4)c(=O)n(Cc4cccs4)c3n2)CC1 -15%
Cc1noc(C)c1-c1ccc2ncnc(N(C)Cc3ccco3)c2c1 -2.45%
COc1cc(=O)n2c(c1C(=O)N(C)Cc1nccs1)CCN(Cc1cc(C)cc(C)c1)CC2 -9.88%
C[C@H](Cc1ccccc1)Nc1ncnc2c1ncn2[C@@H]1O[C@H](CO)[C@@H](O)[C@H]1O -2.48% and -42.4%
Cc1ccccc1-c1cncnc1N1CCN(C)CC1 0.21%
COc1ccccc1CN1CC[C@@]2(CCCN(C(=O)c3cnccn3)C2)C1 6.01%
COc1cc(-c2c(-c3cc(OC)c(OC)c(OC)c3)noc2C)ccc1F -11.7%
COc1cc(O)c(C(=O)/C=C/c2ccc(O)c(OC)c2)c(OC)c1 -2.96%
Cc1cc(OI)c(C(C)C)cc1-c1cc(C(C)C)c(OI)cc1C 5.44%
CO[C@@H]1[C@@H](O[C@@H]2O[C@H](C)[C@@H](O[C@H]3C[C@@](C)(O)[C@@H](O)[C@H](C)O3)[C@H](N(C)C)[C@H]2O)[C@@H](CC=O)C[C@@H](C)[C@@H](O[C@@H]2CC[C@H](N(C)C)[C@@H](C)O2)/C=C/C=C/C[C@@H](C)OC(=O)C[C@H]1OC(C)=O 17%
Cc1noc(C)c1-c1nccc(NCCN2CCOCC2)n1 -2.24%
Cc1nc([N+](=O)[O-])cn1-c1ccc([N+](=O)[O-])cc1 -0.471%
Cc1cccc(CNc2cc(-c3ccccc3CN(C)C)ncn2)c1 -7.37%
CC(O)c1nc2ccccc2[nH]1 (configuration not stated) 0.34%
CN(C)C(=O)c1ccc(-c2nc(N(C)Cc3ccco3)c3ccccc3n2)cc1 -8.18%
O=C(Nc1ccccc1)N1CC2(CCN(C(=O)c3ccncc3)CC2)C1 -5.5%
CC(=O)OCC(=O)[C@@]12OC3(CCCC3)O[C@@H]1C[C@H]1[C@@H]3CCC4=CC(=O)C=C[C@]4(C)[C@@]3(F)[C@@H](O)C[C@@]12C -7.89%
COc1ccc(Oc2ncc3nc(CCc4ccccc4)c(=O)n(C[C@H]4CCCO4)c3n2)cc1 -17.4%
N=C(N=C(N)N)N1CCOCC1 12.3%
Nc1ccn([C@@H]2O[C@H](CO)[C@@H](OP(=O)(O)O)[C@H]2O)c(=O)n1 -14.2%
c1ccc(CNc2nc(-c3cccnc3)nc3ccccc23)cc1 -9.11%
Nc1nc(N)c(N=O)c(N)n1 -6.66%
C[C@H](O)CO[C@H]1[C@H]2O[C@H]3[C@H](O)[C@@H](O)[C@@H](O[C@H]4[C@H](O)[C@@H](O)[C@@H](O[C@H]5[C@H](O)[C@@H](O)[C@@H](O[C@H]6[C@H](O)[C@@H](OC[C@H](C)O)[C@@H](O[C@H]7[C@H](O)[C@@H](OC[C@H](C)O)[C@@H](O[C@H]8[C@H](O)[C@@H](O)[C@@H](O[C@@H]([C@@H]1O)[C@@H](CO)O2)O[C@@H]8CO)O[C@@H]7CO)O[C@@H]6CO)O[C@@H]5CO)O[C@@H]4CO)O[C@@H]3CO 6.8%
COc1cc2nc(CN(CCO)C3CS(=O)(=O)CC3O)nc(N3CCCCC3)c2cc1OC (configuration not stated) 2.38%
CCOC(=O)N1CCN(c2nc(CN3CCCCC3CCO)nc3c(C)cccc23)CC1 (configuration not stated) -1.27%
COc1cc2c(cc1OC)Cc1cc(OC)c(OC)cc1Cc1cc(OC)c(OC)cc1C2 -2.49%
CSc1ccc(C(=O)N2CCc3c(cnc(C)c3CNC(=O)c3cncs3)C2)cc1 0.251%
